Certain results were filed several times, with different values. This list holds those alone. The source may hold further records. Values that stand side by side are repeats in other runs, samples, wells, individuals or studies. Marks such as (2×) give the number of equal values in this list.
System: 485368-065-R4-J2-PDC spheroids with HUVEC/MSC, viability
Assay: Anticancer human tumor 485368-065-R4-J2-PDC patient-derived pancreatic carcinoma cell line growth inhibition [CLK]
Excerpt: A high-throughput screen of multi-cell type tumor spheroids was designed to identify active combinations of […] and targeted small molecules. Complex spheroids include a stromal component modeled by human endothelial cells (HUVEC) and fibroblasts modeled by human mesenchymal stem cells (MSCs). The concentration ranges selected for each drug and investigational agent were based upon clinically achievable concentrations if the clinical Cmax of the agent was known.
Compounds. The drugs and investigational agents: cirtuvivint (SM08502; NSC835563), CC-671 (NSC850746), vemurafenib (NSC761431), tapotoclax (NSC804041), sotorasib (NSC818433), adagrasib (NSC831453), MRTX-1133 (NSC836407), BAY2416964 (NSC825713), copanlisib (NSC816437), inavolisib (NSC800729), abemaciclib (NSC768073), osimertinib (NSC779217), entinostat (NSC756642), eltanexor (KPT-8602, NSC794443), venetoclax (NSC766270), ceralasertib (NSC777638), bortezomib (NSC756655), olaparib (NSC753686), talazoparib (NSC767125), alisertib (NSC759677), peposertib (NSC802822), gemcitabine (NSC613327), 5-fluorouracil (NSC19893), SN-38 (NSC673596), oxaliplatin (NSC266046), paclitaxel (NSC125973), and doxorubicin (NSC123127), were obtained from the National Cancer Institute (NCI) Developmental Therapeutics Program Chemical Repository. […] If the clinical Cmax for an agent had not been determined, the highest concentration tested was 10 microM. […]
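Note: spheroids exposed to compounds for seven days.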
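Throughout, for viability, T/C: 100% = DMSO vehicle control wells.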

SMILES | viability, T/C (compound alone 0.1 µM, stronger effect = lower value) | IC50 (compound alone)
CN1CCN(c2cc(C(=O)Nc3cc4cc(-c5cnn(C)c5)ccc4cn3)ccn2)CC1 | 105, 112, 104, 102 (2×), 99.2, 97.6, 98.7, 96, 85.2, 101, 94.5% | –
CC(=O)O[C@H]1C(=O)[C@@]2(C)[C@H]([C@H](OC(=O)c3ccccc3)[C@]3(O)C[C@H](OC(=O)[C@H](O)[C@@H](NC(=O)c4ccccc4)c4ccccc4)C(C)=C1C3(C)C)[C@]1(OC(C)=O)CO[C@@H]1C[C@@H]2O | – | 102 nM and > 10 µM

Reference: PubChem BioAssay AID2060617 (Molecular Pharmacology Branch, DTP, NCI, 2025)
